Sequences and labels used below:
B1: PhoQ; a variant is named by its letters at X, in order, P23837 (parent)
chain: MKKLLRLFFPLSLRVRFLLATAAVVLVLSLAYGMVALIGYSVSFDKTTFRLLRGESNLFYTLAKWENNKLHVELPENIDKQSPTMTLIYDENGQLLWAQRDVPWLMKMIQPDWLKSNGFHEIEADVNDTSLLLSGDHSIQQQLQEVREDDDDAEMTHSVAVNVYPATSRMPKLTIVVVDTIPVELKSSYMVWSWFIYVLSANLLLVIPLLWVAAWWSLRPIEALAKEVRELEEHNRELLNPATTRELTSLVRNLNRLLKSERERYDKYRTTLTDLTHSLKTPLXXLQXXLRSLRSEKMSVSDAEPVMLEQISRISQQIGYYLHRASMRGGTLLSRELHPVAPLLDNLTSALNKVYQRKGVNISLDISPEISFVGEQNDFVEVMGNVLDNACKYCLEFVEISARQTDEHLYIVVEDDGPGIPLSKREVIFDRGQRVDTLRPGQGVGLAVAREITEQYEGKIVAGESMLGGARMEVIFGRQHSAPKDE

Some of the results follow.

Variants of B1 are the subject of this test. The test is described as follows: enrichment ratio after two sorts for PhoP signalling (ratio (wild type AVST 3.29)); higher = more functional. Conditions: with PhoP (E. coli).
Take DTPD: the enrichment ratio was no more than 0.25.

Regarding SKFC, the enrichment ratio was no more than 0.25.

As for EFKG, the enrichment ratio is no more than 0.25.

Regarding IYEM, the enrichment ratio was no more than 0.25.

For WAKD, the enrichment ratio was no more than 0.25.

Turning to SMER, the enrichment ratio was no more than 0.25.

On to ALPL, for which the enrichment ratio is no more than 0.25.

On to GQAM, for which the enrichment ratio was 10.1.

Consider EIYV, for which the enrichment ratio was no more than 0.25.

LIPE: the enrichment ratio is no more than 0.25.

As to GILS, the enrichment ratio turned out to be 11.

Take QRVE: the enrichment ratio was no more than 0.25.

For the variant MRNV, the enrichment ratio is no more than 0.25.

On to QFMP, for which the enrichment ratio was no more than 0.25.

As for HYDG, the enrichment ratio is no more than 0.25.

Turning to PHDT, the enrichment ratio is no more than 0.25.

In the case of EQCT, the enrichment ratio is no more than 0.25.

Take NRDQ: the enrichment ratio was no more than 0.25.

With RAFR, the enrichment ratio is no more than 0.25.

As to WDSF, the enrichment ratio was no more than 0.25.

Take DGMY: the enrichment ratio was no more than 0.25.

On to SYQN, for which the enrichment ratio was no more than 0.25.

As to KMYP, the enrichment ratio was no more than 0.25.

As for FLVR, the enrichment ratio is no more than 0.25.

Take PDVI: the enrichment ratio is no more than 0.25.

Take RQHT: the enrichment ratio was no more than 0.25.

On to YYHY, for which the enrichment ratio is no more than 0.25.

AWIN: the enrichment ratio is no more than 0.25.

As for HFRA, the enrichment ratio is no more than 0.25.

HSCD: the enrichment ratio was no more than 0.25.

In the case of HKAN, the enrichment ratio is no more than 0.25.

Turning to TGCC, the enrichment ratio turned out to be 21.5.

Turning to HLLL, the enrichment ratio was determined as 1.99.

As for VIKD, the enrichment ratio was no more than 0.25.

As for HQKT, the enrichment ratio was no more than 0.25.

Consider QLSA, for which the enrichment ratio is no more than 0.25.

As to AQLK, the enrichment ratio worked out at 5.59.

On to IRKL, for which the enrichment ratio is no more than 0.25.

Regarding KLTW, the enrichment ratio was no more than 0.25.

EKFG: the enrichment ratio was no more than 0.25.

In the case of DGWY, the enrichment ratio is no more than 0.25.

On to SKML, for which the enrichment ratio was 8.89.

As to VDAH, the enrichment ratio was no more than 0.25.

For NPTV, the enrichment ratio was no more than 0.25.

As to VAIS, the enrichment ratio was no more than 0.25.

Turning to FCFY, the enrichment ratio was no more than 0.25.

Consider GDYV, for which the enrichment ratio was no more than 0.25.

Turning to VLWV, the enrichment ratio was no more than 0.25.

As to TMDH, the enrichment ratio was no more than 0.25.

In the case of TYQI, the enrichment ratio amounted to 0.263.

For the variant RSLE, the enrichment ratio was no more than 0.25.

Consider RHEF, for which the enrichment ratio was no more than 0.25.

Regarding RQDR, the enrichment ratio was no more than 0.25.

In the case of TEKA, the enrichment ratio was no more than 0.25.

In the case of ILLK, the enrichment ratio is no more than 0.25.

In the case of WSKL, the enrichment ratio is no more than 0.25.

Regarding IGWF, the enrichment ratio is no more than 0.25.

Take HMCL: the enrichment ratio came to 2.41.

On to EQQI, for which the enrichment ratio is no more than 0.25.

As to QSDC, the enrichment ratio was 7.21.

For the variant IFDQ, the enrichment ratio was no more than 0.25.

VNIS: the enrichment ratio is no more than 0.25.

As for KIIL, the enrichment ratio is no more than 0.25.

Consider VIWF, for which the enrichment ratio is no more than 0.25.

In the case of IHMR, the enrichment ratio is no more than 0.25.

For the variant ANSL, the enrichment ratio turned out to be 16.8.

In the case of MHFK, the enrichment ratio is no more than 0.25.

As for MCVR, the enrichment ratio is no more than 0.25.

For the variant EEHG, the enrichment ratio is no more than 0.25.

For the variant PDSI, the enrichment ratio is no more than 0.25.

With WTFF, the enrichment ratio was no more than 0.25.

As to RFQN, the enrichment ratio was no more than 0.25.

Turning to HSCM, the enrichment ratio worked out at 4.17.

Regarding QGRG, the enrichment ratio is no more than 0.25.

Regarding DRFY, the enrichment ratio was no more than 0.25.

As for KGRR, the enrichment ratio is no more than 0.25.

In the case of TKQR, the enrichment ratio is no more than 0.25.

As to SAVW, the enrichment ratio is no more than 0.25.

Regarding YIRR, the enrichment ratio is no more than 0.25.

As to NCRC, the enrichment ratio is no more than 0.25.

As for LHSC, the enrichment ratio was no more than 0.25.

In the case of VSKE, the enrichment ratio was no more than 0.25.

YKVA: the enrichment ratio is no more than 0.25.

As to THMS, the enrichment ratio worked out at 0.719.

On to LCPA, for which the enrichment ratio is no more than 0.25.

In the case of KYLA, the enrichment ratio was no more than 0.25.

Regarding VDSD, the enrichment ratio was no more than 0.25.

As to KDVE, the enrichment ratio is no more than 0.25.

For the variant PWAC, the enrichment ratio was no more than 0.25.

As to GYTH, the enrichment ratio was no more than 0.25.

As for DESA, the enrichment ratio was no more than 0.25.

On to QHGS, for which the enrichment ratio was no more than 0.25.

For the variant VQGA, the enrichment ratio was no more than 0.25.

For AAMH, the enrichment ratio is no more than 0.25.

For WKWQ, the enrichment ratio was no more than 0.25.

In the case of LHNL, the enrichment ratio is no more than 0.25.

Take RYLC: the enrichment ratio was no more than 0.25.

As for YTNY, the enrichment ratio was no more than 0.25.

For CFIP, the enrichment ratio was no more than 0.25.

As to PACL, the enrichment ratio was no more than 0.25.

On to LKKS, for which the enrichment ratio is no more than 0.25.

Turning to EVSY, the enrichment ratio was no more than 0.25.

Consider HSCF, for which the enrichment ratio is no more than 0.25.

For the variant NPHK, the enrichment ratio is no more than 0.25.

In the case of GDWM, the enrichment ratio is no more than 0.25.

YHSK: the enrichment ratio is no more than 0.25.

Regarding QSCD, the enrichment ratio is no more than 0.25.

Take DALH: the enrichment ratio was no more than 0.25.

For FWIR, the enrichment ratio was no more than 0.25.

HPSS: the enrichment ratio is no more than 0.25.

With SICN, the enrichment ratio came out at 20.7.

With NNNG, the enrichment ratio was no more than 0.25.

For the variant FNAI, the enrichment ratio was no more than 0.25.

As for NDES, the enrichment ratio was no more than 0.25.

Consider AYTQ, for which the enrichment ratio was no more than 0.25.

Take SMDA: the enrichment ratio is no more than 0.25.

For RMNA, the enrichment ratio is no more than 0.25.

In the case of RHQT, the enrichment ratio was no more than 0.25.

With RNFY, the enrichment ratio was no more than 0.25.

On to CLMP, for which the enrichment ratio is no more than 0.25.

For the variant HESD, the enrichment ratio is no more than 0.25.

As for QDSY, the enrichment ratio was no more than 0.25.

As to QFMS, the enrichment ratio was no more than 0.25.

For the variant CFYR, the enrichment ratio was no more than 0.25.

In the case of MAKV, the enrichment ratio is no more than 0.25.

For the variant DSKF, the enrichment ratio was no more than 0.25.

Turning to APLG, the enrichment ratio was no more than 0.25.

Regarding QTNL, the enrichment ratio is 10.8.

Consider TKKI, for which the enrichment ratio is no more than 0.25.

Take HCAS: the enrichment ratio was no more than 0.25.

Regarding PLEP, the enrichment ratio was no more than 0.25.

On to FKHD, for which the enrichment ratio was no more than 0.25.

Consider MCPM, for which the enrichment ratio is no more than 0.25.

As to RINW, the enrichment ratio was no more than 0.25.

MKWK: the enrichment ratio is no more than 0.25.

With RMCY, the enrichment ratio was no more than 0.25.

As to LSAC, the enrichment ratio was no more than 0.25.

Consider DYVP, for which the enrichment ratio was no more than 0.25.

Consider QRRI, for which the enrichment ratio is no more than 0.25.

For the variant FNFH, the enrichment ratio was no more than 0.25.

Take FMVC: the enrichment ratio is no more than 0.25.

As to HCPE, the enrichment ratio is no more than 0.25.

QNSM: the enrichment ratio is 6.97.

As to KAEY, the enrichment ratio was no more than 0.25.

For the variant NSVM, the enrichment ratio is no more than 0.25.

On to WPAR, for which the enrichment ratio was no more than 0.25.

With IGLA, the enrichment ratio is no more than 0.25.

Turning to RIPC, the enrichment ratio is no more than 0.25.

Regarding VDLT, the enrichment ratio is no more than 0.25.

With LAPM, the enrichment ratio is no more than 0.25.

ASNC: the enrichment ratio was no more than 0.25.

For GLNI, the enrichment ratio is no more than 0.25.

In the case of FFLK, the enrichment ratio was no more than 0.25.

For VTTV, the enrichment ratio was no more than 0.25.

Turning to DEHN, the enrichment ratio is no more than 0.25.

Turning to WKAW, the enrichment ratio was no more than 0.25.

Take EYWY: the enrichment ratio is no more than 0.25.

Regarding ARNI, the enrichment ratio was no more than 0.25.

Consider RFIY, for which the enrichment ratio was no more than 0.25.

Regarding MDVS, the enrichment ratio is no more than 0.25.

As for RHHH, the enrichment ratio is no more than 0.25.

As for LWVM, the enrichment ratio is no more than 0.25.

HPKH: the enrichment ratio is no more than 0.25.

GTHH: the enrichment ratio is no more than 0.25.

For the variant PFRE, the enrichment ratio is no more than 0.25.

On to WCFW, for which the enrichment ratio is no more than 0.25.

Take IFNI: the enrichment ratio is no more than 0.25.

RHCP: the enrichment ratio is no more than 0.25.

For the variant GFYN, the enrichment ratio was no more than 0.25.

As to DKNR, the enrichment ratio was no more than 0.25.

As to LREQ, the enrichment ratio is no more than 0.25.

Turning to QKCT, the enrichment ratio is no more than 0.25.

Take MIIT: the enrichment ratio is no more than 0.25.

Take ISTK: the enrichment ratio was no more than 0.25.

As to LKLE, the enrichment ratio was no more than 0.25.

Turning to NFLE, the enrichment ratio is no more than 0.25.

MGAY: the enrichment ratio is 1.59.

For the variant QGDC, the enrichment ratio came to 3.9.

With DFDW, the enrichment ratio was no more than 0.25.

For the variant WKYN, the enrichment ratio was no more than 0.25.

As to WFWN, the enrichment ratio was no more than 0.25.

Consider MPWP, for which the enrichment ratio is no more than 0.25.

Take VQTQ: the enrichment ratio was no more than 0.25.

On to RSPG, for which the enrichment ratio was no more than 0.25.

Take VDNF: the enrichment ratio is no more than 0.25.

As for RLRF, the enrichment ratio was no more than 0.25.

Regarding PICY, the enrichment ratio is no more than 0.25.

On to EFSC, for which the enrichment ratio is no more than 0.25.

GCSG: the enrichment ratio amounted to 6.35.

Consider FTLC, for which the enrichment ratio was determined as 6.55.

For RVHV, the enrichment ratio is no more than 0.25.

On to FGFN, for which the enrichment ratio is no more than 0.25.

MTNY: the enrichment ratio was no more than 0.25.

With SAGK, the enrichment ratio is no more than 0.25.

Consider EHTQ, for which the enrichment ratio is no more than 0.25.

The values are drawn from a collection of fitness landscapes (doi:10.1126/science.1257360).
